# Measured values taken from PubChem BioAssay AID1347417 (National Center for Advancing Translational Sciences (NCATS), 2020).
# Screen size: about 120,000 compounds; about 5,300 (4.4%) were called active. Inconclusive results, whose numbers are uncertain, are shown with a selection of clear calls. Calls come from the whole dose curve; as a rule, active = well fitted inhibition curve with a large enough effect; inconclusive = small, poorly fitted or top-dose-only effect; inactive = no such curve, though single readings can be large or run the other way. A potency beside an inconclusive call is a rough fit, not a confirmed value.
# Assay: qHTS Primary assay for Inhibitors of Plasmodium falciparum Dd2 growth in vitro; note: nearly all actives have a fitted effect of over 65% in size;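 for activity, negative = inhibition: plate controls were DMSO vehicle for no effect and reference drug for full effect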
# Details: P. falciparum Dd2 growth, SYBR Green, 72 h; activity, negative = inhibition: at 28.9 µM (top of the series) unless noted; series mostly up to 28.9 µM
# Method in brief: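 Infected erythrocytes (Dd2, 0.3% parasitemia, 2.5% hematocrit final) are added to compound in RPMI-1640/Albumax II medium, grown 72 h at 37C in low oxygen, then lysed with saponin/Triton-X containing SYBR Green and read by fluorescence.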
# Potency is the fitted concentration of half-maximal effect; tags give direction and shape of the fitted curve.
SMILES,Potency,"activity, negative = inhibition",outcome
Cc1ccc(CN(Cc2cccn2-c2nnc(N3CCCC3=O)s2)C(=O)Nc2ccccc2Cl)cc1,active: 11.2 µM,–,–
CNC(=O)c1[nH]nc2c1C(c1cc(OC)ccc1-n1cccn1)CC(=O)N2 (centres undefined),"inconclusive: 10 µM [inhibitor, single point]",–,–
CC(=O)N1CC2(CCN(Cc3cc4ccccc4[nH]3)C2)Cc2ccccc21 (centres undefined),"inconclusive: 7.94 µM [inhibitor, partial curve]",–,–
Cc1cc(C)c2c(NC(=O)c3ccccc3Cl)c(C(=O)NCc3ccc(Cl)cc3)sc2n1,"inconclusive: 11.2 µM [inhibitor, single point]",–,–
CNCc1cn(C[C@H]2CC3CCN2C[C@@H]3C(=O)NCc2ccccc2)nn1 (some centres undefined),–,inactive: 13.3% [at 44.1 µM],–
Cc1noc(-c2cn(C3CCCN(C(=O)c4ccc(C)c(C)c4)C3)nn2)n1 (centres undefined),"inconclusive: 7.94 µM [inhibitor, partial curve, poor fit]",–,–
CC1=C(c2ccc(C(C)C)cc2)S(=O)(=O)N=C1N1CCC(C(=O)NCc2ccc(C)o2)CC1,–,inactive: -10.8%,–
O=C(NC1CCCCC1)c1ccc(CSc2nc3cccnc3n2Cc2ccccc2)cc1,"inconclusive: 11.2 µM [inhibitor, single point]",–,–
CC(C)c1noc(-c2ccn3c(CNC(=O)Cc4ccccc4Cl)nnc3c2)n1,active: 5.01 µM,–,–
COc1ccc(-c2noc([C@@H]3C[C@@H](O)CN3Cc3ccc(S(C)(=O)=O)cc3)n2)cc1,–,inactive: 4.89% [at 44.1 µM],–
O=C(Cc1cccnc1)N1CCCC(Cc2noc(-c3ccccc3)n2)C1 (centres undefined),–,–,inactive
COc1cccc(-c2nc(-c3c(C)noc3C)cc3c2cc(C)n3C)c1OC,–,inactive: -5.91% [at 44.1 µM],–
Cc1ccc(Cl)cc1-n1nc(-c2c(C)nc3scc(CC(=O)NCC(C)C)n3c2=O)cc1C,–,inactive: -2.63%,–
O=C(NCCCN1CCN(c2ccc(F)cc2)CC1)Nc1ccccc1Cl,active: 7.94 µM,–,–
COc1ccc(C(=O)Nc2nc3c(s2)C[C@@H]2[C@](C)(CO)[C@H](O)CC[C@@]2(C)[C@@H]3CC(=O)NCc2ccccc2)cc1,"inconclusive: 1.26 µM [inhibitor, single point]",–,–
O=C(NC1CC1)c1ccccc1OC1CN(Cc2cc(F)c(F)c(F)c2)C1,"inconclusive: 12.6 µM [inhibitor, single point]",–,–
Cn1c(CN2CCOCC2)nc2cc(NC(=O)c3ccccc3[N+](=O)[O-])ccc21,"inconclusive: 12.6 µM [inhibitor, single point]",–,–
COc1cncc(Nc2cnc3ccc(-c4cccc(CO)c4)nn23)c1,active: 12.6 µM,–,–
O=C(NCc1ccsc1)c1nc(-c2ccc(Cl)cc2)c2cnccn12,"inconclusive: 1 µM [inhibitor, partial curve, poor fit]",–,–
O=C(NCCc1ccc(Cl)cc1)c1nc(-c2ccc(Cl)nc2)c2cnccn12,active: 8.91 µM,–,–
COc1ccc(Cn2c(C3CCN(C(=O)COc4ccccc4)CC3)n[nH]c2=O)cc1,"inconclusive: 1.26 µM [inhibitor, full curve]",–,–
O=c1c2nc(N3CCC(c4ccccc4)CC3)ccc2ncn1-c1cccnc1,"inconclusive: 31.6 µM [inhibitor, single point]",–,–

SMILES,Potency,"activity, negative = inhibition",outcome
CN1CCCC2(C1)CN(C)c1ccc(C(=O)NCC3CCCCC3)cc12 (centres undefined),"inconclusive: 12.6 µM [inhibitor, single point]",–,–
COCCN1CC2(CCCN(Cc3cc(C(C)(C)C)n[nH]3)C2)CCC1=O (centres undefined),"inconclusive: 0.1 µM [inhibitor, full curve, poor fit]",–,–
N#Cc1ccc(-c2c(-c3ccccc3)ncn2CCNc2cccnc2)cc1,"inconclusive: 0.562 µM [inhibitor, partial curve, poor fit]",–,–
O=C(Cc1ccccc1)N1CCC2(CC1)CC(N(Cc1ccc(F)cc1)C1CC1)CCO2 (centres undefined),"inconclusive: 8.91 µM [inhibitor, single point]",–,–
COc1ccc(-c2ccc3c(n2)CN(Cc2ccccc2C)C(=O)CO3)cc1OC,"inconclusive: 11.2 µM [inhibitor, partial curve, poor fit]",–,–
O=C(COc1ccc(F)cc1)N1CC(c2noc(COc3ccccc3)n2)C1,"inconclusive: 8.91 µM [inhibitor, partial curve]",–,–
CCn1cc2nc(SCc3cc(C)ccc3C)n(Cc3ccc(Cl)cc3)c(=O)c2n1,"inconclusive: 17.8 µM [inhibitor, single point]",–,–
CCN(CC)c1ccc(CN(C(=O)c2cc(=O)c3ccccc3o2)C2CCS(=O)(=O)C2)cc1 (centres undefined),"inconclusive: 11.2 µM [inhibitor, single point]",–,–
CCN1c2cc(C(=O)Nc3ccc(F)c(Cl)c3)ccc2C(=O)N2CCCC21 (centres undefined),"inconclusive: 7.94 µM [inhibitor, single point]",–,–
CNc1nccc(N2CCC(CC(=O)N3CCN(c4cccc(OC)c4)CC3)CC2)n1,"inconclusive: 11.2 µM [inhibitor, partial curve, poor fit]",–,–
O=C1CC(c2ccccc2)N(C(=O)CNC(=O)c2[nH]nc3c2CCc2ccccc2-3)CCCCCN1 (centres undefined),"inconclusive: 1.78 µM [inhibitor, partial curve, poor fit]",–,–
COc1ccccc1C(=O)N1CCC2(CC1)OC(=O)N(Cc1ccccc1C#N)C2(C)c1ccccc1 (centres undefined),"inconclusive: 1.12 µM [inhibitor, partial curve]",–,–
COc1ccc(C(=O)N2CCOCC3(CN(Cc4cc(F)cc(F)c4)C3)C2)cc1,–,inactive: 17.5% [at 44.1 µM],–
CC(C)c1ccc(C2CC(=O)N3CN(C4CCCCC4)CSC3=C2C#N)cc1 (centres undefined),active: 11.2 µM,–,–
CCCCN(CCCC)CCCNC(=O)c1cc(-c2ccc(Cl)s2)nc2ccccc12,active: 5.62 µM,–,–
CN(C)c1ccc(-c2nnc([C@H]3CCN(CC4CCCCC4)C3)o2)cc1,"inconclusive: 10 µM [inhibitor, partial curve, poor fit]",–,–
c1cncc(Nc2cc3c(cn2)CN(Cc2ccsc2)CCN3)c1,active: 8.91 µM,–,–
COCCN1C(=O)CCC2(C(=O)NCCN(C)C3CCCCC3)CCCC=C12 (centres undefined),"inconclusive: 10 µM [inhibitor, partial curve, poor fit]",–,–
CC(C)NC(=O)c1ccc(CSc2nc3ccncc3n2Cc2cccc(F)c2)cc1,"inconclusive: 17.8 µM [inhibitor, single point]",–,–
NC(=O)[C@@H](Cc1c[nH]c2ccccc12)NC(=O)[C@H]1CN(C(=O)c2cccc(F)c2)CCN1C(=O)c1cccs1,"inconclusive: 8.91 µM [inhibitor, single point]",–,–
CN(C)C[C@@H]1CN(S(C)(=O)=O)C[C@H]1NC(=O)c1ccc2nc[nH]c2c1,–,inactive: -24.1%,–
Cc1ccccc1NC(=O)c1c(C)oc2ccc(O)c(CN3CCCCCC3)c12,active: 2.51 µM,–,–

SMILES,Potency,"activity, negative = inhibition",outcome
Cc1ccccc1NC(=O)c1sc2nc(-c3cc4ccccc4oc3=O)[nH]c(=O)c2c1C,"inconclusive: 14.1 µM [inhibitor, partial curve, poor fit]",–,–
CC(C)CCN1CCC(N2CCN(S(=O)(=O)c3ccc(CC(C)C)cc3)CC2)C1=O (centres undefined),"inconclusive: 8.91 µM [inhibitor, partial curve, poor fit]",–,–
CCCCC12CN3CC(C)(CN(C1)C3c1ccc(OCc3ccccc3)cc1)C2=O (centres undefined),"inconclusive: 17.8 µM [inhibitor, single point]",–,–
Cc1ccc(C2Cn3nnc(C(=O)Nc4ccc(Br)cc4)c3CO2)cc1 (centres undefined),–,inactive: 8.45%,–
CCc1ccccc1NC(=O)N1CCC(Oc2ncccc2C(=O)N2CCCCC2)C1 (centres undefined),"inconclusive: 6.31 µM [inhibitor, partial curve, poor fit]",–,–
CCN1CCN(CCNC(=O)c2cc(-c3ccc(Cl)cc3)cn2C)CC1,"inconclusive: 17.8 µM [inhibitor, single point]",–,–
COc1ccc(NC(=O)CSc2nc3ccccc3n2CC(=O)N(C)C2CCCCC2)cc1,"inconclusive: 17.8 µM [inhibitor, single point]",–,–
COc1ccccc1-c1[nH]nc2ncc(-c3ccc(C)cc3)nc12,–,–,inactive [at 44.1 µM]
CC1=C[C@@H](CNC(=O)NC2CCCCC2)[C@H](C(C)C)C[C@H]1CC(=O)O,"inconclusive: 12.6 µM [inhibitor, single point]",–,–
O=C(NCC1CC1)c1cccc(OC2CN(C3CCCCC3)C2)c1,"inconclusive: 20 µM [inhibitor, single point]",–,–
O=C(Cn1cc(SCc2ccc(Cl)cc2)c2ccccc21)N1CCOCC1,"inconclusive: 11.2 µM [inhibitor, partial curve, poor fit]",–,–
CN(c1ccccc1)c1ccc2nnc(-c3cc(C(=O)NC4CCOCC4)ccn3)n2n1,–,inactive: -22.1% [at 44.1 µM],–
Cc1noc(C)c1NC(=O)N[C@@H]1C[C@H](Cn2cc(-c3cccnc3)nn2)[C@@H](O)[C@H]1O,–,inactive: 0.661%,–
COc1cccc(-n2c(SCC(=O)Nc3ccc4c(c3)OCO4)nc3c([nH]c4ccccc43)c2=O)c1,"inconclusive: 17.8 µM [inhibitor, single point]",–,–
COc1cccc(C(=O)NCc2nnc3ccc(-c4ccc(C)cc4)nn23)c1OC,–,–,inactive
COc1ccc(-c2cc(OC(=O)c3cccc(Cl)c3)c3c(C)oc(C)c3c(=O)c2)cc1OC,"inconclusive: 14.1 µM [inhibitor, partial curve, poor fit]",–,–
COc1ccc(NC(=O)CCn2ccn3nc4c(c3c2=O)CCCC4)cc1,"inconclusive: 3.98 µM [inhibitor, single point]",–,–
COc1ccc(CN(Cc2ccco2)C(=O)COc2ccccc2Cl)cc1,–,inactive: 14.2%,–
COc1ccc(C(=O)N[C@@H]2CCC[C@@H]2C(=O)N2CCN(c3cc(C)ccc3C)CC2)cc1,active: 5.01 µM,–,–
Cn1ncc(N2CCCC(CC(=O)Nc3ccc(F)c(F)c3)C2)cc1=O (centres undefined),–,inactive: -17.8%,–
